# According to PubChem BioAssay AID596 (National Center for Advancing Translational Sciences (NCATS), 2007):
# In all, about 71,000 compounds went through this assay and about 1,400 (2%) were called active. Inconclusive means that the source gave no clear call. Such entries were picked first, then a sample of the others. The call rests on the fitted dose curve; in most records, active means well fitted curve in the direction sought with a large enough effect; inconclusive means small, poorly fitted or top-dose-only effect; inactive means no such curve, though single readings can be large or run the other way. Potencies beside an inconclusive call are fits to weak or partial responses and may not hold up. Where a structure was tested more than once in an assay, its records may differ in their call.
# Target: Microtubule-associated protein tau (Homo sapiens) (UniProt P10636)
# UniProt P10636, sequence (P10636 whole entry, looked up): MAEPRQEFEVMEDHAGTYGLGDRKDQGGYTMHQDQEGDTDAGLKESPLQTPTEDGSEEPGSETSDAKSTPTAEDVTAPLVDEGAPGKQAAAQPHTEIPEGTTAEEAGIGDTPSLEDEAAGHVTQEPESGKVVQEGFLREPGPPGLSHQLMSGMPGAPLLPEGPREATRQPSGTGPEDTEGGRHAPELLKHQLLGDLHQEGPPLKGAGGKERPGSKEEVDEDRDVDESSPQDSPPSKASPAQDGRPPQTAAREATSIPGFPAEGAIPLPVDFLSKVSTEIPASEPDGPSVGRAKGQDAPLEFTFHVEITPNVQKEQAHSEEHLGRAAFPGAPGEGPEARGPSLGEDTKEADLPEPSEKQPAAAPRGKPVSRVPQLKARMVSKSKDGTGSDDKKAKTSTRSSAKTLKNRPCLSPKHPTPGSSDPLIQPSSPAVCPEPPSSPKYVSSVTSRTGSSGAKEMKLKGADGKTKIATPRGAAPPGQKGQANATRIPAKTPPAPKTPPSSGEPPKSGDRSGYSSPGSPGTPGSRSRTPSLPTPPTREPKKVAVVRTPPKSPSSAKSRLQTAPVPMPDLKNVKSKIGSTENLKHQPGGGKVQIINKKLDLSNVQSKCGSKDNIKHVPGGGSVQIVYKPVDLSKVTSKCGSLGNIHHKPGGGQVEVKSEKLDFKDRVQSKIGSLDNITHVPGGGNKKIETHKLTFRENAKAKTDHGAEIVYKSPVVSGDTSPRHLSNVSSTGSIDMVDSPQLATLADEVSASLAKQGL
# Test: qHTS Assay for Tau Filament Binding;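 further: actives lower thioflavin S fluorescence by blocking filaments or displacing dye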
# Conditions: recombinant tau filaments, thioflavin S fluorescence, 15 h, filaments grown with octadecylsulfate alongside compound; series mostly up to 57.1 µM
# Summary of the method: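 Tau 2 uM in ThS buffer dispensed; compound added; 60 uM ODS added (finals 1 uM tau, 30 uM ODS); 15 h 37 C; fluor ex450/em510.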
# On the % scale 0 is the no-effect control and ±100 the full control effect; potency means the concentration at half of the fitted maximal effect.
Compound,Potency,"activity change, negative = inhibition"
COc1ccc(OC)c(C(=O)CSc2nnc(-c3cccnc3)n2C)c1,inconclusive: 15.8 µM [decreasing],
CN1CCN2c3ncccc3Cc3ccccc3C2C1 (configuration not stated),inconclusive: 39.8 µM [decreasing],
COc1ccc(-n2c(C)cc(C(=O)CSc3nn4c(=O)c(C(C)(C)C)nnc4s3)c2C)cc1,active: 20 µM,
Clc1cc(Cl)cc(Cl)c1,inactive,
CCc1nc(Nc2ccc(N3CCN(C(C)=O)CC3)cc2)c2oc3ccccc3c2n1,active: 20 µM,
c1ccc2cc(C3=NCCN3)ncc2c1,inconclusive: 39.8 µM [decreasing],
CCCn1c(=O)c(C)cn2nc(N)nc12,inconclusive: 39.8 µM [decreasing],
C=CCn1c(=N)n(CC(=O)O)c2ccccc21,inactive,
N[C@@H](Cc1ccccc1)c1nnc(SCc2ccccc2Cl)o1,inconclusive: 31.6 µM [decreasing],
O=C1c2ccccc2C(Nc2ccc3c(c2)OCO3)N1Cc1ccco1 (configuration not stated),active: 12.6 µM,
COc1cccc(NC2c3ccccc3C(=O)N2Cc2ccco2)c1 (configuration not stated),inconclusive: 31.6 µM [decreasing],
COc1ccc(Cl)cc1C(=O)NCCc1ccc(S(=O)(=O)NC(=O)NC2CCCCC2)cc1,inconclusive: 39.8 µM [decreasing],
CCOC(=O)c1cnc(-n2nc(C)cc2C)nc1Nc1ccc(N(C)C)cc1,active: 12.6 µM,
CCN(CC)S(=O)(=O)c1cccc(-c2nnc(C(=O)c3ccc(C(F)(F)F)cc3)o2)c1,active: 15.8 µM,
O=C1C=C(NCCc2cc(Br)c(O)c(Br)c2)C(=O)c2ncccc21,inconclusive: 3.16 µM [decreasing],
COc1ccc2nc(SCC(N)=O)[nH]c2c1,inactive,
CCCN(CCC)c1nc2ccccc2nc1C(C#N)C(=O)OCCOC (configuration not stated),active: 1.26 µM,
O=c1cc(-c2ccccc2)oc2cc(O[C@H]3O[C@H](CO)[C@@H](O)[C@H](O)[C@@H]3O)c(O)c(O)c12,inconclusive: 39.8 µM [decreasing],
O=C(c1ccco1)N1CCN(C2=NS(=O)(=O)c3ccccc32)CC1,inactive,
O=C(NCCCN1CCCC1=O)c1nnc(Cc2c(F)cccc2Cl)o1,inconclusive: 6.31 µM [decreasing],
CC(=O)O[C@@H]1CC[C@]2(C)C(=C[C@@H]([C@@H]3C=C4C[C@@H](OC(C)=O)CC[C@]4(C)C4=C3[C@H]3C[C@@H]5O[C@@]6(CC[C@H](C)CO6)[C@@H](C)[C@@H]5[C@@]3(C)CC4)C3=C2CC[C@@]2(C)[C@H]4[C@@H](C)[C@]5(CC[C@H](C)CO5)O[C@@H]4C[C@H]32)C1,,inactive: 6.5% [at 11.4 µM]

Compound,Potency,"activity change, negative = inhibition"
Cn1ccnc1SCC(=O)c1cc2ccccc2o1,inconclusive: 25.1 µM [decreasing],
O=c1c(O)c(-c2ccc(O)cc2)oc2cc(O)cc(O)c12,active: 31.6 µM,
CCOc1ccccc1N1CCN(S(=O)(=O)c2ccc3c4c(cccc24)C(=O)N3)CC1,active: 15.8 µM,
CN(C)c1ccc(-c2ccc3ncnc(NC4CC4)c3c2)cc1,inconclusive: 3.16 µM [decreasing],
CCN1CCC[C@@H]1CNC(=O)c1cc(S(N)(=O)=O)ccc1OC,inconclusive: 39.8 µM [decreasing],
CCOC(=O)c1sc(NC(=O)CSc2nnc(Cc3ccccc3)o2)c(C#N)c1C,active: 20 µM,
CCOC(=O)c1cc2sc(C)cc2n1CC(=O)N1CCc2ccccc21,inactive,
CC(C)C[C@@H](NC(=O)OCC1c2ccccc2-c2ccccc21)C(=O)O,inconclusive: 39.8 µM [decreasing],
CCN(CC)CCOCCOC(=O)C1(c2ccccc2)CCCC1,inconclusive: 39.8 µM [decreasing],
CCN(CCNS(=O)(=O)c1ccc2[nH]c(=O)sc2c1)c1ccccc1,inactive,
O=C(c1cnn2c(C(F)(F)F)cc(-c3ccco3)nc12)N1CCCCCC1,inconclusive: 31.6 µM [decreasing],
COc1ccc(N2CCN(Cc3cc(=O)oc4cc(C)c(Cl)c(C)c34)CC2)cc1,inconclusive: 39.8 µM [decreasing],
O=c1c(-c2ccccc2)nc2cncnc2n1Cc1ccccc1,active: 20 µM,
O=C(NCc1ccco1)c1nc2nc(-c3cccs3)cc(C(F)(F)F)n2n1,active: 25.1 µM,
Cc1ccc(NC(=O)N2CCC(C(=O)NCc3ccccc3)CC2)cc1,inactive,
CCOC(=O)c1cc(C(C)(C)C)oc1CN,inconclusive: 15.8 µM [decreasing],
COc1ccc(Cn2c(C)nc3c(c2=O)c2nc4ccccc4nc2n3Cc2ccco2)cc1,active: 2.51 µM,
COC(=O)N1CCC[C@@]2(CCN(c3ccccn3)C2)C1,inactive,
COc1ccc2c3c1O[C@H]1C[C@H](O)C=C[C@@]31CCN(C)C2,inconclusive: 39.8 µM [decreasing],
Cn1c(CCN2CCCCC2)nc2cc(NC(=O)Nc3ccccc3)ccc21,inconclusive: 39.8 µM [decreasing],
COc1ccc2cc(C(c3nnnn3C3CCCC3)N3CCc4ccccc4C3)c(=O)[nH]c2c1 (configuration not stated),inconclusive: 25.1 µM [decreasing],

Compound,Potency,"activity change, negative = inhibition"
COc1cccc(C=Nc2ccc3c(c2)OCCO3)c1O,inactive,
COc1cc(-c2cc(=O)c3ccccc3o2)ccc1O,inconclusive: 39.8 µM [decreasing],
O=c1cc(-c2ccccc2)[nH]n1-c1nc2ccccc2s1,inconclusive: 20 µM [decreasing],
COc1ccccc1NC(=O)CSc1ccc2nnc(-c3ccccn3)n2n1,inconclusive: 25.1 µM [decreasing],
Cc1cnc(NC(=O)c2ccc(-c3nc4ccccc4s3)o2)s1,inconclusive: 3.98 µM [decreasing],
CCOc1ccc(-c2[nH]ncc2Oc2ccccc2OC)c(O)c1,inconclusive: 39.8 µM [decreasing],
C1=Nc2c(NCc3ccccc3)ncnc2Oc2ccccc21,inconclusive: 25.1 µM [decreasing],
COc1ccccc1N1CCN(c2nc3ccccc3nc2C(C#N)C(=O)OC(C)C)CC1 (configuration not stated),active: 7.94 µM,
c1ccc2c(c1)CCN2CCN1CCc2ccccc21,inconclusive: 31.6 µM [decreasing],
COc1cccc(OC)c1OCCCc1c(C)n[nH]c1C,inactive,
CCOC(=O)c1ccc(NC(=O)c2ccc(C)c(S(=O)(=O)N3CCOCC3)c2)cc1,,inactive: 26.5% [at 11.4 µM]
COCCn1c(=O)c(-c2ccccc2)nc2cnc(OCc3ccccc3)nc21,inconclusive: 20 µM [decreasing],
Cc1ccc(-c2oc3ccccc3c(=O)c2O)cc1,inactive,
O=C(NCCCN1CCCCCC1)[C@@H](c1ccccc1)C1CCCCC1,inconclusive: 31.6 µM [decreasing],
Cc1ccc2cc(C#N)c(NCCNC(=O)C3CC3)nc2c1C,inactive,
Cc1oc(/N=C/c2c(O)ccc3ccccc23)c(C#N)c1C,active: 2.51 µM,
COc1cc2ccc(=O)oc2c(O)c1O,inconclusive: 39.8 µM [decreasing],
O=C(CSc1nc2ccccc2o1)Nc1ccc(N2CCOCC2)c(Cl)c1,inconclusive: 31.6 µM [decreasing],
CCOC(=O)c1sc(NC(=O)C2CCCO2)c(C(=O)OCC)c1C (configuration not stated),inconclusive: 12.6 µM [decreasing],
Cc1ccccc1-c1nccc(-n2ccnc2)n1,inactive,
CCC(C)(C)N=C(NC#N)Nc1cccnc1,inconclusive: 39.8 µM [decreasing],

Compound,Potency,"activity change, negative = inhibition"
CC1(C)c2ccccc2N2CC(=O)N(CC(N)=O)C21C (configuration not stated),inconclusive: 39.8 µM [decreasing],
CC1=C(C(=O)OC(C)C)C(c2ccc(N(C)C)cc2)C2=C(CC(C)(C)CC2=O)N1 (configuration not stated),inconclusive: 31.6 µM [decreasing],
CCOC(=O)C1=C(C)NC(=S)NC1c1cccc(O)c1 (configuration not stated),inconclusive: 39.8 µM [decreasing],
CCc1ccc(C2C(C#N)=C(N)SC(N)=C2C#N)cc1,,inactive: 11.8% [at 11.4 µM]
CCOn1c(=O)c(-c2ccc(OC)cc2)[n+]([O-])c2ccccc21,inconclusive: 25.1 µM [decreasing],
CC(C)Oc1ccc(C(=O)Nc2ccc(N(C)C)cc2)cc1,inconclusive: 1 µM [decreasing],
CCCC[C@@H]1C[C@H]1C(NC(=O)c1cccnc1)c1ccc(Cl)cc1 (some centres not stated),inactive,
Oc1c(CN2CCN(c3ccccc3)CC2)cc(Br)c2cccnc12,inconclusive: 3.16 µM [decreasing],
COc1ccc(OC)c2[nH]c(=O)c(CCNS(=O)(=O)c3ccc(Cl)cc3)cc12,inactive,
OC1CN=C2CCCc3c2n(c2ccc(Cl)cc32)C1 (configuration not stated),active: 7.94 µM,
CCCCOc1ccc(C(=O)Nc2ccc(N3CCN(C)CC3)cc2)cc1,active: 1 µM,
CCOC(=O)c1cccc(-n2c(C)nc3ccccc3c2=O)c1,inconclusive: 31.6 µM [decreasing],
Cc1ccc2nc(NC(=O)CN(C)S(=O)(=O)c3ccc(Br)s3)sc2c1,inactive,
CC(C)c1ccc2c(c1)CC[C@@H]1[C@@](C)(CN)CCC[C@@]21C,active: 31.6 µM,
CCOC(=O)C1=C(N2CCCCC2)c2cc3c(n2C1=O)CCCC3,active: 15.8 µM,
O=C(Cc1c[nH]c2ccccc12)Nc1nc2ccccc2[nH]1,inconclusive: 25.1 µM [decreasing],
O=C1CC[C@H](N2C(=O)c3ccccc3C2=O)C(=O)N1,inconclusive: 39.8 µM [decreasing],
CC(C)(C)c1cc(O)c(C(C)(C)C)cc1O,inconclusive: 39.8 µM [decreasing],
O=C1c2ccccc2-c2c1cccc2C(=O)N1CCN(C(=O)c2ccco2)CC1,inconclusive: 3.16 µM [decreasing],
